Reference: patent US20140322220A1 (Bayer, published 2014)
Numbered stars: 1 amine (or outer) side, 2 acyl side, 3 side chain; on linkers, the order of the positions; unused ones are H or OH. Square brackets hold non-standard residues; d marks the D form. Ends that are not written are not given here. * marks the point of attachment. Biotin = O=C1N[C@H]2[C@H](CS[C@H]2CCCCC(=O)*)N1; Ttds = O=C(CCC(=O)[*:2])NCCCOCCOCCOCCCN[*:1]

Columns and labels:
[1] = target: T1, N-terminal peptide of dog FGFR2 (first 15 amino acids) (dog); assay: SPR Biacore T100, IgG captured, peptide as analyte
T1 peptide: RPSFNLVEDTTLEPE
Procedure: (§1) Binding affinities of anti FGFR2 antibodies were determined by surface plasmon resonance analysis on a Biacore T100 instrument (GE Healthcare Biacore, Inc.). Antibodies as human IgG1 were immobilized onto a CM5 sensor chip through an indirect capturing reagent, anti-human IgG(Fc). Reagents from the “Human Antibody Capture Kit” (BR-1008-39, GE Healthcare Biacore, Inc.) were used as described by the manufacturer. Approximately 5000 RU monoclonal mouse anti-human IgG (Fc) antibody were immobilized per cell. Anti FGFR2 antibodies were injected at a concentration of 5 μg/ml at 141/min for 10 sec. […] Sensograms were generated after in-line reference cell correction followed by buffer sample subtraction. The dissociation equilibrium constant (KD) was calculated based on the ratio of association (kₒₙ) and dissociation rated (koff) constants, obtained by fitting sensograms with a first order 1:1 binding model using Biavaluation Software (version 4.0).

[2] = target: T2, N-terminal peptide of rabbit FGFR2 (first 15 amino acids) (rabbit); assay: SPR Biacore T100, IgG captured, peptide as analyte
T2 peptide: RPSFNLVEDATVEPE
Procedure: as §1

[3] = target: T3, N-terminal peptide of pig FGFR2 (first 15 amino acids) (pig); assay: SPR Biacore T100, IgG captured, peptide as analyte
T3 peptide: RPSFNLVEDTTVEPE
Procedure: as §1

[4] = target: T4, N-terminal peptide of FGFR2 of human, mouse, rat, macaca mulatta (first 15 amino acids) (human, mouse, rat, macaca mulatta); assay: SPR Biacore T100, IgG captured by anti-human IgG (Fc), peptide as analyte, 1:1 model
T4 peptide: RPSFSLVEDTTLEPE
Procedure: as §1

rat FGFR2 on RUCA cells [5] = target: T5, rat FGFR2 on RUCA cells (rat, UniProt F1LNW0 41-840); assay: FACS, 5 ug/ml, RUCA cells
T5 construct: whole, on cells
Procedure: (§2) To determine the binding characteristics of the anti-FGFR2 antibodies on mouse, rat and human cancer cell lines, binding was tested by flow cytometry to a panel of cell lines. Adherent cells were washed twice with PBS (without Ca and Mg) and detached by enzyme-free PBS based cell dissociation buffer (Invitrogen). Cells were suspended at approximately 10⁵ cells/well in FACS buffer (PBS without Ca/Mg, Biochrom containing 3% FCS, Biochrom). Cells were centrifuged (250 g, 5 min, 4° C.) and supernatant discarded. Cell were resuspended in dilutions of the antibodies of interest (5 μg/ml in 80 μl if not indicated otherwise) in FACS buffer, and incubated on ice for 1 h. […] After incubation for 1 h on ice cells were again washed with cold FACS buffer, resuspended in 100 μl FACS buffer and analyzed by flow cytometry using a FACS-Array (BD Biosciences). Results are calculated as Geo Mean of the detection by the antibody of interest subtracted by background fluorescence as measured by detection with the secondary antibody alone.

[6] = target: T6, mutated human FGFR2 on MFE-296 cells (human, UniProt P21802 22-821); assay: FACS, 5 ug/ml, MFE296 cells
T6 construct: whole, on cells
Procedure: as §2

[7] = target: T7, mutated human FGFR2 on AN3-CA cells (human, UniProt P21802 22-821); assay: FACS, 5 ug/ml, AN3CA cells
T7 construct: whole, on cells; also called AN3-CA (DSMZ-ACC 267)
Procedure: as §2

rat FGFR2 on RUCA cells [8] = target: T5, rat FGFR2 on RUCA cells; assay: FACS titration 0.1-100 nM, Ruca cells
Procedure: as §2, with “alone. Values are scored according to the following system:” for “alone.”
To determine the EC₅₀ values for binding of antibodies to selected cancer cell lines, cells were stained with FGFR2 antibodies as described above, but with various concentrations of antibodies ranging from 0.1-100 nM. […]

[9] = target: T1, N-terminal peptide of dog FGFR2 (first …); assay: SPR Biacore T100, IgG captured by anti-human IgG (Fc), peptide as analyte, 1:1 model
Procedure: as §1

[10] = target: T2, N-terminal peptide of rabbit FGFR2 …; assay: as above
Procedure: as §1

[11] = target: T3, N-terminal peptide of pig FGFR2 (first …); assay: as above
Procedure: as §1

[12] = target: T8, RPSFSLVEDTTLEPEG-Ttds-Lys(Biotin) (human); assay: peptide binding ELISA, antibody captured by anti-human IgG Fc, biotinylated peptide titrated
T8 construct: Synthesized by JPT Peptide Technology
T8 peptide: RPSFSLVEDTTLEPEG[Ttds]K(Biotin)
Source text: (§3) Two different types of ELISA were used to determine the binding improvement of mutated variants: a) Peptide Binding ELISA: a synthetic peptide comprising the amino acid sequence of the epitope linked C-terminally to a biotinylated lysine […]-Ttds-Lys(Biotin) (peptide sequence derived from SEQ ID NO:63, synthesized by JPT Peptide Technology GmbH, Berlin, Germany), and b) Recombinant Protein Binding ELISA: recombinant human FGFR2 (DNA sequence of human FGFR2 (NP 000132.3) Met 1-Glu 377, fused with a polyhistidine tag at the C-terminus; #10824-1-1081-1, Sin θ Biological Inc., Beijing, China).
(§4) Briefly, in both ELISA formats MTP plates (384 well Maxisorp, Nunc) were coated with 20 μl, anti-human IgG Fc specific (#12136; sigma) at 2.2 μg/ml for 2.5 h at 37° C. in coating buffer (#121125 Candor Bioscience GmbH). […] Anti-FGFR2 variants were immobilized in concentrations of 0.035 μg/ml (peptide based assay) or 0.2 μg/ml (recombinant human FGFR2 protein based assay) in 10% Smart Block in PBST depending on the format and variants to be analyzed by incubation of 20 μl for one hour at 20-22° C. […] After 3 washing steps 20 μl of 10 μM amplex red substrate (# A12222, Invitrogen) in 50 mM Sodium hydrogen phosphate, pH 7.6, were added and the fluorescence signal was detected using a common fluorescence reader, e.g. Tecan M1000. […]

[13] = target: T9, recombinant human FGFR2 (Met 1-Glu 377) with C-terminal polyhistidine tag (human, UniProt P21802 partial chain); assay: protein binding ELISA; the reference itself
T9 construct: The range is that of the expressed DNA and begins at Met 1; also called His-tagged FGFR2; recombinant human FGFR2-IIIc molecule
Source text: as §3, §4

[14] = target: T9, recombinant human FGFR2 (Met 1-Glu 377) …; assay: protein binding ELISA, antibody captured by anti-human IgG Fc, FGFR2-His titrated
Source text: as §3, §4

[15] = target: T8, RPSFSLVEDTTLEPEG-Ttds-Lys(Biotin); assay: peptide binding ELISA; the reference itself
Source text: as §3
Briefly, in both ELISA formats MTP plates (384 well Maxisorp, Nunc) were coated with 20 μl, anti-human IgG Fc specific (#12136; sigma) at 2.2 μg/ml for 2.5 h at 37° C. in coating buffer (#121125 Candor Bioscience GmbH). […] Anti-FGFR2 variants were immobilized in concentrations of 0.035 μg/ml (peptide based assay) or 0.2 μg/ml (recombinant human FGFR2 protein based assay) in 10% Smart Block in PBST depending on the format and variants to be analyzed by incubation of 20 μl for one hour at 20-22° C. After one washing step using 50 μl PBST, 20 μl quadruplets of the antigen dilution series in 10% SmartBlock in PBST with a maximum concentration of 100 nM were added and incubated for 1 h at 20-22° C. and the washing step was repeated 3 times. For the detection of the biotinylated epitope peptide 20 μl of streptavidine/POD conjugate (# S5512, Sigma) in a 1:1000 dilution in 10% SmartBlock in PBST were applied for one hour at 20-22° C. For the detection of the recombinant FGFR2 protein 20 μl of anti-His/HRP conjugate (#71840, novagen) in a 1:10000 dilution in 10% SmartBlock in PBST were applied for one hour at 20-22° C. After 3 washing steps 20 μl of 10 μM amplex red substrate (# A12222, Invitrogen) in 50 mM Sodium hydrogen phosphate, pH 7.6, were added and the fluorescence signal was detected using a common fluorescence reader, e.g. Tecan M1000. EC50 values were evaluated by fitting the data (Sigmoida) dose-response, variable slope, bottom set to background; GraphPad Prism software).

B1: M047-D08-hIgG1 (antibody)
heavy: EVQLLESGGGLVQPGGSLRLSCAASGFTFRTSGMHWVRQAPGKGLEWVAVISYDGSNKYYADSVKGRFTISRDNSKNTLYLQMNSLRAEDTAVYYCARESPGYDFEYWGQGTLVTVSS[human IgG1 constant region not listed]
light: QSVLTQPPSASGTPGQRVTISCSGSSSNIGSNTVNWYQQLPGTAPKLLIYGNSNRPSGVPDRFSGSKSGTSASLAISGLRSEDEADYYCAAWDDSLNGWVFGGGTKLTVLGQPKAAPSVTLFPPSSEELQANKATLVCLISDFYPGAVTVAWKADSSPVKAGVETTTPSKQSNNKYAASSYLSLTPEQWKSHRSYSCQVTHEGSTVEKTVAPTECS
notes: Human IgG1
B1: no binding (tested: peptide up to 400 nM) [1]; no binding (tested: peptide up to 400 nM) [2]; no binding (tested: peptide up to 400 nM) [3]. For the same binder, the Kd [4] was 101 nM, the “Geo Mean minus Geo Mean of secondary antibody alone (FACS)” value (“Geo Mean minus Geo Mean” for short) (rat FGFR2 on RUCA cells [5]) was 100 to 1000 geomean and the “Geo Mean minus Geo Mean” value [6] was 1000 to 10000 geomean. The “Geo Mean minus Geo Mean” value [7] was 100 to 1000 geomean and the EC50 (rat FGFR2 on RUCA cells [8]) was 1 nM.

B2: M048-D01-hIgG1 (antibody)
heavy: EVQLLESGGGLVQPGGSLRLSCAASGFTFSSYAMSWVRQAPGKGLEWVSAISGSGTSTYYADSVKGRFTISRDNSKNTLYLQMNSLRAEDTAVYYCARVRYNWNHGDWFDPWGQGTLVTVSS[human IgG1 constant region not listed]
light: QSVLTQPPSASGTPGQRVTISCSGSSSNIGNNYVSWYQQLPGTAPKLLIYENYNRPAGVPDRFSGSKSGTSASLAISGLRSEDEADYYCSSWDDSLNYWVFGGGTKLTVLGQPKAAPSVTLFPPSSEELQANKATLVCLISDFYPGAVTVAWKADSSPVKAGVETTTPSKQSNNKYAASSYLSLTPEQWKSHRSYSCQVTHEGSTVEKTVAPTECS
notes: Human IgG1; also called M048-D1; M048-D01-hNG1 [sic]
B2 was tested, and the Kd [4] was 105 nM, the Kd [9] was 72 nM and the Kd [10] was 88 nM. The Kd [11] was 70 nM, the “Geo Mean minus Geo Mean” value (rat FGFR2 on RUCA cells [5]) was 10 to 100 geomean and the “Geo Mean minus Geo Mean” value [6] was 1000 to 10000 geomean. For the same binder, the “Geo Mean minus Geo Mean” value [7] was 100 to 1000 geomean and the EC50 (rat FGFR2 on RUCA cells [8]) was 0.9 nM.

B3: TPP-1403 (antibody, human IgG1, lambda)
heavy: EVQLLESGGGLVQPGGSLRLSCAASGFTFSSYAMSWVRQAPGKGLEWVSAISGSGTSTYYADSVKGRFTISRDNSKNTLYLQMNSLRAEDTAVYYCARVRYNWNHGDWFDPWGQGTLVTVSS[human IgG1 constant region not listed]
light: AQSVLTQPPSASGTPGQRVTISCSGSSSNIGNNYVSWYQQLPGTAPKLLIYENYNRPAGVPDRFSGSKSGTSASLAISGLRSEDEADYYCSSWDDSLNYWVFGGGTKLTVLGQPKAAPSVTLFPPSSEELQANKATLVCLISDFYPGAVTVAWKADSSPVKAGVETTTPSKQSNNKYAASSYLSLTPEQWKSHRSYSCQVTHEGSTVEKTVAPTECS
With B3 the EC50 [12] was greater than 10 nM, the “fold EC50 reduction” value [13] was 1 fold and the EC50 [14] was 8 nM. The “fold EC50 reduction” value [15] was 1 fold.

B4: TPP-1415 (antibody, human IgG1, lambda)
heavy: EVQLLESGGGLVQPGGSLRLSCAASGFTFRTSGMHWVRQAPGKGLEWVAVISYDGSNKYYADSVKGRFTISRDNSKNTLYLQMNSLRAEDTAVYYCARESPGYDFEYWGQGTLVTVSS[human IgG1 constant region not listed]
light: AQSVLTQPPSASGTPGQRVTISCSGSSSNIGSNTVNWYQQLPGTAPKLLIYGNSNRPSGVPDRFSGSKSGTSASLAISGLRSEDEADYYCAAWDDSLNGWVFGGGTKLTVLGQPKAAPSVTLFPPSSEELQANKATLVCLISDFYPGAVTVAWKADSSPVKAGVETTTPSKQSNNKYAASSYLSLTPEQWKSHRSYSCQVTHEGSTVEKTVAPTECS
For B4, the EC50 [12] was greater than 10 nM, the “fold EC50 reduction” value [13] was 1 fold and the EC50 [14] was 8 nM. The “fold EC50 reduction” value [15] was 1 fold and the fold signal [15] was 1 fold.
